Laboratory results from PMC5836133.
Some of the results follow. At the low end of the ranking the order means little.

The sequences below were run on T1, GST-NbGlk1(82-244) (assay: protein-binding microarray). Settings: NbGlk1 is a Golden2-like transcription factor of Nicotiana benthamiana; high values mean tight binding; most listed sequences are background and not binding sites; double strand, one strand shown.
T1 sequence: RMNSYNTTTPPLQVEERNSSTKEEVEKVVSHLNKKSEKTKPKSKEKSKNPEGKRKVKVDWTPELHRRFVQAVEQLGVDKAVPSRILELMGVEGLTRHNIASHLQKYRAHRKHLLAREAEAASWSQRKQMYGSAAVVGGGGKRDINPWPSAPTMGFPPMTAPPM
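Also: rank-based score ranging −0.5 to +0.5 with E above 0.45 taken as significant binding.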

Sequence | binding signal [E-score]
AATGCGTG | -0.102
CAATAGGA | 0.0155
CACCCCTA | -0.163
AACTTAAG | -0.0538
AAGCGGCA | -0.196
AGTCTTAT | -0.00956
ATATTACC | 0.137
ACCTTTCG | -0.136
ATCACCAC | 0.113
AGGCGGCC | -0.198
AGCGCGTC | -0.159
ATTACAGC | 0.177
AGACCACA | -0.0589
ACAATCGG | 0.123
ACATACCC | -0.166
ATTACATC | 0.229
ATTTAGCC | -0.0907
AAGCACAC | -0.129
AGAGGACG | -0.225
ATTCAAAT | 0.21
ATGATCGA | 0.062
AAAGTGGG | -0.138
CACAACCG | -0.093
CAAAAGCA | -0.0146
AGTTATAT | 0.116

Sequence | binding signal [E-score]
ATGGGCAC | -0.167
ATGGATGA | -0.0309
ATAGTCTA | 0.0222
AACGGGGT | -0.196
ATGCCTCG | -0.126
ACAATGAA | -0.0372
ACAATTCG | 0.0797
AGCGTGTG | -0.0212
AATAAACT | 0.0164
ACGCGCCC | -0.177
ACTTTCCT | -0.189
ATCGGATG | 0.0808
ATACTGTC | 0.138
ATCCCACC | 0.155
CACGACTC | -0.0472
ACCGCGAA | -0.0226
ATTCATAC | 0.084
AGAGGTCC | -0.299
AAGTGGCG | -0.183
AAAAAGCT | -0.0684
CAATCAGA | 0.206
ACGTAATG | 0.00594
AGGACGGC | -0.288
CAGATAGA | 0.0454
AAACGGAG | -0.0752

Sequence | binding signal [E-score]
AGCCCGAG | -0.142
AGTACTAC | -0.0238
ACTGGCAG | -0.236
ATACTATA | 0.133
AAAAGGAG | -0.0555
AGCAAGAC | -0.0412
AACCTTGG | -0.21
ATCGTTAC | 0.0361
ATTGTTGC | 0.136
ATATGCCC | 0.129
ATGATCAC | 0.00851
ACACTGTC | -0.0464
ACCAGAAT | 0.149
AAGTTGCG | -0.0262
AAAAGGGT | -0.177
AGCTGTCA | -0.125
ACATAACT | -0.00256
CAGCAATA | 0.184
ACGGAGGA | -0.128
AAACTAAG | 0.055
AGCATGGG | -0.205
AATGGGAT | 0.174
CAGAGGAG | -0.147
ATCCTTCG | 0.106
CAAATATA | 0.245

Sequence | binding signal [E-score]
ACAGATGA | 0.0626
AGTAGCAA | 0.066
AAGGCTAG | -0.142
CAATCCCC | 0.194
ACCACCAC | -0.16
AACATATT | 0.172
AAGCCCAC | -0.198
ACCTACGT | -0.148
ATGCGGAA | 0.077
AGCTATGA | 0.0193
ACAGTATA | 0.203
ACCTGAAG | -0.11
ACTTATAC | 0.141
ATGTATTG | 0.00833
AACGCGTT | 0.00919
ACGTTTAT | -0.0287
AACCGTGG | -0.137
AATCCCAG | 0.342
AACCGACC | -0.1
CAACAGAC | -0.0742
AACTAGAT | 0.208
ACGGATCA | 0.102
AATAGGTA | 0.0364
CAACATTC | -0.0757
ATTTCTAG | 0.261

Sequence | binding signal [E-score]
ACGCGATC | 0.437
AATTGTCT | 0.0922
AGCCACGG | -0.294
AATCGGAA | 0.296
ATGTCAGC | -0.0616
ACGACGAA | -0.0302
CAGAGTCG | -0.141
ATCAATCC | 0.0601
ATCTACCC | 0.15
AAGGGAAA | 0.132
AGACCTGA | -0.111
CAAAACGA | 0.0285
AACAGACC | -0.0314
ACAACTGG | -0.162
AGACCATC | -0.191
CACTATTC | -0.0347
ACATTGAA | 0.00539
ATTAGTAA | 0.0358
ACAGAGAT | 0.267
AATGGGGA | 0.0144
ACCTAAAG | -0.0978
AACTTGGA | -0.0519
AGGTTCTC | -0.247
AAGTGAGA | 0.0589
AAGAAAAA | 0.164

Sequence | binding signal [E-score]
ATGCGTAC | 0.000502
AGCGGAAT | 0.162
ACACCACT | -0.103
AAATTTCC | 0.305
AGAAGTCT | 0.0662
AGACATGC | -0.0692
CAGAACCC | -0.178
CAGATTCC | 0.473
AACATTCC | 0.0127
AAAGATTA | 0.318
AGACTTCC | -0.272
CACCGTAC | -0.0425
ACGCTGCA | 0.00061
ACGAGAGG | -0.00422
AACCTTAA | -0.0854
AGTCTGGA | -0.121
ATCAACGG | 0.132
CACCCCGA | 0.0631
AATAAGGA | 0.0725
ACACGCCC | -0.154
AAGGTGAC | -0.108
ATCTCCCG | 0.184
AGCTCGGG | -0.121
ACCTTTTC | 0.0641
ATGATGAG | -0.0301

Sequence | binding signal [E-score]
ACTTAGGC | -0.0531
ACCTGTTC | -0.232
ACGGACGA | -0.0738
CAGAGGCC | -0.234
ATCGCAGC | 0.031
ACGCACGA | -0.00453
AGCTATAT | 0.0883
ACAGTAAT | 0.217
ATACCCAT | 0.151
AACGATCC | 0.186
AACAGATA | 0.271
CAGCCATG | -0.244
ACGCTAGC | -0.175
AATATATG | 0.252
ATCTGCTG | 0.291
AACACCTC | -0.0127
CAATGTGG | -0.136
AGTCTCCG | -0.27
ACCCACAT | -0.0499
AAGTATAG | -0.0105
ACGGGATA | 0.144
AAACCGGG | -0.0679
